Experimental findings from PubChem BioAssay AID1508642 (National Center for Advancing Translational Sciences (NCATS), 2021) are described below.

In all, about 43,000 compounds went through this assay and about 200 (0.47%) were called active. Roughly 12% stayed inconclusive and do not appear here. Calls follow the shape of the dose curve; as a rule, active = well fitted cell-killing curve with a large enough effect; inconclusive = small, poorly fitted or top-dose-only effect, or effect the other way; inactive = flat fitted curve, though single readings scatter. The list shows a part of the results.
% is scaled to controls: 0 for no effect and ±100 for the full control effect.

The nature of the experiment: Cell viability qHTS assay in S16 Pmp22-F2sN cells. Also: nearly all actives have a fitted effect of over 65% in size. The conditions noted are these: S16 Pmp22-F2sN Schwann cells viability, CellTiter-Glo, 24 h; series mostly up to 57.5 µM; activity change, negative = cytotoxicity: at the top concentration. An outline of the steps:
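S16 Pmp22-F2sN Schwann cells (500-1,000/well) in phenol-red-free DMEM with 10% FBS received 23 nL compound by pin tool for 24 h at 37 °C. Viability was then read as CellTiter-Glo luminescence after 15 min at room temperature.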
Background: Quantitative high-throughput screening tests each substance at several concentrations.
Consider `CC(=O)c1cc(-c2ccc(F)cc2)n(CCC(=O)Nc2nc3ccc(C)cc3s2)c1C`, for which the “activity change, negative = cytotoxicity” value is inactive: -20.1%.
Consider `COc1ccc(OC)c(/C=C(\C#N)c2nc(-c3ccc(F)cc3)cs2)c1`, for which the “activity change, negative = cytotoxicity” value was inactive: -6.4%.
On to `COC(=O)c1ccc2c(c1)N(Cc1ccccc1)C(=O)c1ccccc1S2(=O)=O`, for which the “activity change, negative = cytotoxicity” value was inactive: 9.12%.
In the case of `COc1ccc(Cn2c(C(=O)O)c(CNC3CCCCC3)c3ccc(C)cc32)cc1`, the “activity change, negative = cytotoxicity” value was inactive: -13.1%.
The figure for `COc1ccc(Cl)cc1NC(=O)CN1Cc2ccccc2C1=O` is inactive: 1.94%; for `Cc1nc(S(=O)(=O)N2CCN(c3ccccc3F)CC2)cn1C` it is inactive: 2.1%.
To `COc1ccc2c(c1)CCc1c(C(=O)Nc3ccc(OC)cc3OC)noc1-2` belongs inactive: -15.1%; to `COc1ccccc1NC(=O)c1sc2nc3n(c(=O)c2c1C)N=C(c1cccc(Br)c1)CS3`, inactive: 3.05%.
To `CCCC12CN3CC(C)(CN(C1)C3c1ccc(OCc3ccccc3)cc1)C2=O` (stereo unspecified) belongs inactive: -1.57%; to `Cc1cccc(CNC(=O)CN2C(=O)CCn3nc(-c4cn(C)c5ccccc45)cc32)c1`, inactive: 2.78%.
As to `O=C(O)c1ccc(NC(=O)c2ccc(Br)c(S(=O)(=O)N3CCCC3)c2)cc1`, the “activity change, negative = cytotoxicity” value was inactive: 10.2%.
Consider `CCOc1ccc(NC(=O)Cc2c[nH]c3ccccc23)cc1`, for which the “activity change, negative = cytotoxicity” value was inactive: 7.54%.
As to `CCN1C(=O)C(Cc2nc3ccccc3c(=O)n2C)c2cc(C)ccc21` (stereo unspecified), the “activity change, negative = cytotoxicity” value is inactive: 1.88%.
Regarding `O=C(Nc1ccc(Cl)cc1)c1cc(S(=O)(=O)NC2CCCCCC2)ccc1F`, the “activity change, negative = cytotoxicity” value was inactive: -25.5%.
With `O=C(CN1CCN(Cc2ccccc2Cl)C1=O)NCCc1ccc(Cl)cc1`, the “activity change, negative = cytotoxicity” value is inactive: 17.4%.
To `Cc1ccc(-c2csc3ncnc(Nc4ccc(C(=O)O)cc4)c23)cc1` belongs inactive: -2.06%; to `COc1ccccc1-c1nc2cc(NC(=O)c3ccccc3Cl)ccc2o1`, inactive: 30.9%.
The figure for `CN(C(=O)Cn1nnc(-c2ccc(S(C)(=O)=O)cc2)n1)c1ccccc1` is inactive: 0.811%.
For the compound `Cc1ccccc1NCc1nc2ccccc2n1CCOc1ccccc1`, the “activity change, negative = cytotoxicity” value was inactive: -29.7%.
The figure for `CCN1C(=O)c2ccccc2Sc2ccc(NC(=O)c3ccc(C#N)cc3)cc21` is inactive: -3.48%; for `COc1ccc(NC(=O)CSc2oc(-c3ccco3)nc2S(=O)(=O)c2ccccc2)c(OC)c1` it is inactive: 23.3%; for `Cc1c(C(=O)N(C)C)sc2c1c(=O)n(-c1ccccc1C(F)(F)F)c(=O)n2Cc1cccc(F)c1` it is inactive: -3.89%.
For the compound `COc1ccc(C(=O)Nc2nc3c(s2)Cc2cc(OC)ccc2-3)cc1`, the “activity change, negative = cytotoxicity” value is inactive: 12.9%.
For `Cc1ccc2c(c1)N(C(=O)N1CCC(C(=O)NCc3ccccc3F)CC1)CC(C)O2` (stereo unspecified), the “activity change, negative = cytotoxicity” value was inactive: -12.5%.
In the case of `Cc1cccc(NC(=O)c2sc(-n3nc(C)c(CCC(C)C)c3C)nc2C)c1`, the “activity change, negative = cytotoxicity” value is inactive: -3.02%.
To `CCOc1ccc(NC(=O)CCSc2nc(-c3ccc4c(c3)OCO4)cc(C(F)(F)F)n2)cc1` belongs inactive: -4.66%.
For the compound `COc1ccc(-n2c3c(cc(-c4nc(-c5ccc(Cl)cc5)cs4)c2=O)C(=O)CC(C)(C)C3)cc1Cl`, the “activity change, negative = cytotoxicity” value was inactive: 2.33%.
Turning to `COc1ccc(OC)c(NC(=O)N2CCN(Cc3nc4ccc(C)cc4o3)CC2)c1`, the “activity change, negative = cytotoxicity” value was inactive: 19.1%.
The figure for `COc1ccc(CCNc2nc3cc(OC)c(OC)cc3c3nc(-c4cccnc4)nn23)cc1OC` is inactive: 5.37%; for `O=S(=O)(c1ccccc1)c1nc(-c2ccccc2F)oc1N1CCOCC1` it is inactive: -16.7%; for `COc1ccc(-c2cn3c(n2)sc2cc(C(=O)Nc4ccc(C)cc4C)ccc23)cc1` it is inactive: 5.58%.
To `COc1cc2ccccc2cc1C(=O)Nc1ccc2oc(-c3cccc(C)c3)nc2c1` belongs inactive: 4.65%; to `CCCCc1nn2c(=O)cc(COC(=O)c3ccccc3NC(=O)c3cccc(C)c3)nc2s1`, inactive: -4.09%; to `Cc1cccc(NC(=O)c2c(C)oc3ncnc(N4CCCCC4)c23)c1C`, inactive: 0.189%.
For `CCOC(=O)N1CCN(C(=O)Cn2ncc3c4ccccc4n(Cc4ccc(F)cc4)c3c2=O)CC1`, the “activity change, negative = cytotoxicity” value was inactive: -17.8%.
In the case of `CCOC(=O)c1c(NC(=O)COc2ccc(Br)cc2)sc(C(C)=O)c1C`, the “activity change, negative = cytotoxicity” value was inactive: -22.6%.
In the case of `COc1ccccc1-c1nnc(C2CCN(S(=O)(=O)c3ccc(F)c(C)c3)CC2)o1`, the “activity change, negative = cytotoxicity” value is inactive: 2.2%.
The figure for `O=C(COc1ccc(F)cc1)Nc1ccc(Cl)c(-c2nc3ccccc3[nH]2)c1` is inactive: 11.7%; for `Cc1noc(C)c1S(=O)(=O)NCCc1csc2nc(-c3ccc(Cl)cc3)nn12` it is inactive: -18.4%; for `Cc1ccc(C(=O)NCC(c2cccnc2)N2CCc3ccccc3C2)cc1C` (stereo unspecified) it is inactive: -14.1%.
As for `CCOc1ccc(C(=O)c2c(N)c(-c3nc(-c4ccc(OCC)cc4)cs3)c3ccccn23)cc1`, the “activity change, negative = cytotoxicity” value was inactive: -3.89%.
For `Cc1nc(-c2ccc(F)cc2)sc1CCNC(=O)c1ccc(C(C)(C)C)cc1`, the “activity change, negative = cytotoxicity” value was inactive: 2.7%.
Take `Cc1ccc(Cl)cc1NS(=O)(=O)c1ccc(N2CCCCS2(=O)=O)cc1`: the “activity change, negative = cytotoxicity” value is inactive: 14.2%.
Turning to `CC(=O)Nc1cccc(-c2cn3cccnc3n2)c1`, the “activity change, negative = cytotoxicity” value is inactive: 7.38%.
To `Cc1ccc(NC(=O)Cn2c(=O)n(Cc3ccccc3)c(=O)c3c2c2cc(C)ccc2n3C)cc1` belongs inactive: 5.12%; to `COc1ccc2nc(NC(=O)c3cc(=O)c4cc(C)c(C)cc4o3)sc2c1`, inactive: -5.58%.
The figure for `CCOc1ccc(N2CC(c3nc4ccccc4n3CCOc3ccccc3)CC2=O)cc1` (stereo unspecified) is inactive: 4.2%; for `Cc1nn(-c2ccccc2)c2sc(C(=O)Nc3cccc(Br)c3)cc12` it is inactive: 9.71%; for `Cc1nc2ncnn2c(C)c1CCC(=O)NCc1cccc(Cl)c1` it is inactive: 1.05%.
Turning to `Cc1ccc(NC(=O)c2cc(S(=O)(=O)N3CCCCC3)c[nH]2)cc1F`, the “activity change, negative = cytotoxicity” value was inactive: -6.65%.
As to `COc1ccc(C2C=C(c3ccccc3)Nc3nc(NC(=O)/C=C/c4ccc(Cl)cc4)nn32)cc1` (stereo unspecified), the “activity change, negative = cytotoxicity” value was inactive: 10.3%.
Regarding `CCC(=O)N1CCc2cc(S(=O)(=O)CCC(=O)NCc3ccc(OC)cc3)ccc21`, the “activity change, negative = cytotoxicity” value was inactive: 6.74%.
The figure for `O=C(CSc1nc2c(cnn2-c2ccc(F)cc2)c(=O)[nH]1)Nc1ccccc1C(F)(F)F` is inactive: -0.333%; for `COc1ccccc1N1CCN(C(=O)c2cc3c(=O)oc4ccccc4c3s2)CC1` it is inactive: -10.1%.
For `COc1ccccc1NC(=O)C1=C(C)Nc2nc(SCc3cccc(F)c3)nn2C1c1ccc(C(=O)O)cc1` (stereo unspecified), the “activity change, negative = cytotoxicity” value is inactive: -1.04%.
`O=C(c1cccc(Cl)c1)N1CCC(c2nc3ccccc3o2)CC1`: the “activity change, negative = cytotoxicity” value is inactive: -5.63%.
Take `O=C(Cn1c(=O)n2nc(-c3cccc(F)c3)nc2c2ccccc21)N1CCN(c2ccccc2F)CC1`: the “activity change, negative = cytotoxicity” value was inactive: 2.33%.
Turning to `CC1CCN(C(=O)C(C)Sc2nc(-c3ccccc3)cc(C(F)(F)F)n2)CC1` (stereo unspecified), the “activity change, negative = cytotoxicity” value is inactive: -26%.
To `COc1ccc(OC)c(NC(=O)c2c(C)oc3ncnc(N4CCOCC4)c23)c1` belongs inactive: -1.85%.
To `Cc1cccc(-c2nc(SCC(=O)N(C)c3ccccc3)c3c(=O)n(C)c(=O)n(C)c3n2)c1` belongs inactive: -3.31%; to `CCCN1C(=O)C2(c3ccccc31)c1c(oc3ccccc3c1=O)C(=O)N2CCCOC(C)C` (stereo unspecified), inactive: -4.43%.
